# Out of some 380,000 compounds screened, about 4,000 (1.1%) were called active. The shares of active, inactive and inconclusive entries below differ from those in the screen. Calls come from the whole dose curve; as a rule, active = well fitted activation curve with a large enough effect; inconclusive = small, poorly fitted or top-dose-only effect; inactive = no such curve, though single readings can be large or run the other way. A potency beside an inconclusive call is a rough fit, not a confirmed value.
# Assay: qHTS Assay to Identify Small Molecule Activators of BRCA1 Expression; note: nearly all actives have a fitted effect of over 80% in size
# Conditions: MCF7-BRCA1-FFLuc reporter, luminescence, 48 h; activation: at 46.1 µM (top of the series), scaled: vehicle 0%, 10 µM genistein 100% unless noted
# Summary of the method: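 MCF7-BRCA1-FFLuc cells, 2000/well in phenol-red-free MEM, attached 2 h then treated 48 h at 37 C. Luciferase luminescence read 15 min after reagent; normalized to genistein maximum activation (10microM) and DMSO, concentration-response fitted.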
# Potency is the fitted concentration of half-maximal effect; tags give direction and shape of the fitted curve.
SMILES,Potency,activation
CC1(C)CC(=O)C=C(Nc2cccc(F)c2)C1,inactive,–
Nc1nc(CSC(=S)N2CCCCC2)nc(Nc2ccccc2)n1,active: 14.1 µM,–
CN(C)c1ccc(/C=C/c2nnnn2-c2ccccc2)cc1,active: 3.98 µM,–
NC(=O)CC(NC(=O)c1ccccc1)c1ccc(NCc2ccccn2)c([N+](=O)[O-])c1 (stereo not drawn),inactive,–
CC(C)(C)c1csc(NC(=O)CS(=O)(=O)c2ccccc2)n1,"inconclusive: 17.8 µM [activator, partial curve, poor fit]",–
O=C1c2ccccc2C(=O)N1CCSC(=S)N1CCOCC1,"inconclusive: 12.6 µM [activator, partial curve, poor fit]",–
Cc1cccc(-n2cnc3cc(C(=O)N4CCCCC4)ccc32)c1,"inconclusive: 7.08 µM [activator, partial curve, poor fit]",–
Cc1[nH]c2ccccc2c1N=Nc1cccc(C(=O)O)c1,active: 3.16 µM,–
Cc1ccsc1C(=O)NCCc1ccco1,active: 4.47 µM,–
Cc1ccccc1NC(=O)Nc1ccc2c(c1)CCC2,"inconclusive: 2.51 µM [activator, partial curve, poor fit]",–
Cc1ccc(NC(=O)CCn2nnc3ccccc32)c(C)c1,"inconclusive: 10 µM [activator, partial curve, poor fit]",–
CSC1SCC2C(=O)N(C)C(C(C)C)C(=O)OCC(NC(=O)c3cnc4ccccc4n3)C(=O)NC(C)C(=O)N(C)C1C(=O)N(C)C(C(C)C)C(=O)OCC(NC(=O)c1cnc3ccccc3n1)C(=O)NC(C)C(=O)N2C (stereo not drawn),–,inconclusive: -89.3% [activator]
CCNC(=O)Nc1nc2ccccc2s1,active: 3.16 µM,–
COc1ccc(C(=O)NCCc2nnc3ccc(SCC(=O)NCc4ccccc4)nn23)cc1,inactive,–
Cc1cccc(-c2nnc(SCC(=O)N3CCOCC3)o2)c1,"inconclusive: 14.1 µM [activator, partial curve, poor fit]",–
CCCSc1cc(N2CCN(C)CC2)nc(-c2ccc(OC)cc2)n1,inactive,–
O=C(Nc1cccc(C(F)(F)F)c1)C(=O)N1CCCCC1,"inconclusive: 10 µM [activator, partial curve, poor fit]",–
CCN(CC)c1ccc(-c2nc(-c3ccncc3)no2)cc1[N+](=O)[O-],"inconclusive: 2 µM [activator, partial curve, poor fit]",–
CSc1ccccc1OCc1cc(C(=O)N(C)Cc2nonc2C)no1,active: 11.2 µM,–
Oc1ccc(Cl)cc1Sc1cc(Cl)ccc1O,inactive,–
O=c1c(-c2ccc3c(c2)OCCO3)coc2c(CN3CCOCC3)c(O)ccc12,"inconclusive: 20 µM [activator, single point]",–
COc1ccc(Cc2nnc(-c3ccccc3)o2)cc1,active: 12.6 µM,–
COc1ccccc1-c1cc(C(F)(F)F)nc(S(=O)(=O)CCCC(=O)Nc2cccnc2Cl)n1,inactive,–
O=C(CC1C(=O)N(c2ccccc2)C(=S)N1c1ccccc1)c1ccccc1 (stereo not drawn),inactive,–

SMILES,Potency,activation
Fc1cccc(/C=N/Nc2nccnc2Cl)c1,"inconclusive: 3.55 µM [activator, partial curve, poor fit]",–
COc1ccc(C(=O)COC(=O)CCC(=O)Nc2ccc(C(C)=O)cc2)cc1,"inconclusive: 10 µM [activator, single point]",–
CC(C)c1cc(C(=O)NCCc2ccccc2)no1,"inconclusive: 15.8 µM [activator, partial curve, poor fit]",–
O=C(NCc1cccs1)Nc1cccc(Cl)c1,"inconclusive: 35.5 µM [activator, single point]",–
Cc1ccc(C)c(S(=O)(=O)NCc2ccc(C(=O)N3CCN(C)CC3)cc2)c1,inactive,–
N#Cc1ccccc1OCC(=O)NC(=O)NCc1ccco1,"inconclusive: 10 µM [activator, partial curve, poor fit]",–
O=C(CCCN1C(=O)C(c2ccccc2)Oc2cccnc21)NCCc1ccc(Cl)cc1 (stereo not drawn),inactive,–
CN(C)c1nc2ccc(OCCN3CCCCC3)cc2s1,active: 11.2 µM,–
Fc1ccc(-c2ccc(Nc3cccc(F)c3)nn2)cc1,"inconclusive: 7.08 µM [activator, full curve, poor fit]",–
O=C(CSc1ccccc1)N1CCc2ccccc21,"inconclusive: 15.8 µM [activator, partial curve, poor fit]",–
CCOc1ccc2nc(NC(=O)CSc3cn[nH]n3)sc2c1,"inconclusive: 1.58 µM [activator, partial curve, poor fit]",–
COCCCNC1=C(C#N)C(=O)NC(c2cccc([N+](=O)[O-])c2)S1 (stereo not drawn),inactive,–
O=c1[nH]c(=S)[nH]c2c1[C@H](C1CC1)O[C@H](CCc1ccccc1)C2,inactive,–
CC(C)(O)c1cc2ccc(C#Cc3ccsc3)cc2c(=O)o1,"inconclusive: 22.4 µM [activator, single point]",–
CC(C)CC(=O)Nc1ccc(-c2cn3cccnc3n2)cc1,"inconclusive: 15.8 µM [activator, partial curve, poor fit]",–
O=C(Nc1ccc(F)cc1)NC1CCCCC1,"inconclusive: 11.2 µM [activator, partial curve, poor fit]",–
Cc1ccccc1CNC(=O)C(=O)NCCC1CCCCN1S(=O)(=O)c1ccccc1 (stereo not drawn),inactive,–
Brc1ccc(NC2=Nc3ccccc3CC2)cc1,active: 8.91 µM,–
Cc1cc(/C=C2\C=Cc3ccccc32)cc(C)c1N,inactive,–
Cc1cc2nc(-c3ccc(OCc4ccccc4C)cc3)cc(C(F)(F)F)n2n1,"inconclusive: 3.16 µM [activator, partial curve, poor fit]",–
O=C(NCc1ccco1)c1ccc(-c2ccc(Cl)cc2)o1,"inconclusive: 11.2 µM [activator, partial curve, poor fit]",–
Cc1cc(C)c2c(N)c(C(=O)Nc3ccccc3F)sc2n1,"inconclusive: 1.58 µM [activator, full curve, poor fit]",–
Cc1ccc(SCc2ccc(C(=O)N3CCCC3)cc2)cc1,active: 11.2 µM,–
O/C(=C\c1ccc2ccccc2n1)c1ccc(O)cc1O,"inconclusive: 1.26 µM [activator, partial curve, poor fit]",–

# Reference: PubChem BioAssay AID624202 (National Center for Advancing Translational Sciences (NCATS), 2012)
